In the supplement of paper PMC4967469:
IC50 is the fitted dose that halves viability relative to control wells, and lower means more sensitive; a limit (>, <) means that the fit lies beyond the doses tested. AUC is the area under the same curve over the 256-fold range up to the top dose, as a fraction; values near 1 show little effect. For some assays here: Where the top dose is marked as inferred, it comes from the curve model; the source does not state it.

Assays:
Assay in all cases: Viability of human cancer cell lines after 72 h of drug (GDSC screen)
Paclitaxel = compound: CC(=O)O[C@H]1C(=O)[C@@]2(C)[C@H]([C@H](OC(=O)c3ccccc3)[C@]3(O)C[C@H](OC(=O)[C@H](O)[C@@H](NC(=O)c4ccccc4)c4ccccc4)C(C)=C1C3(C)C)[C@]1(OC(C)=O)CO[C@@H]1C[C@@H]2O [Paclitaxel]; conditions: top dose 0.1024 µM
Experimental: (§1)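 Human cancer cell lines in 384-well plates, medium with 10% serum, drug for 72 h over a 256-fold dose range (nine 2-fold or five 4-fold steps up to the top dose). Adherent lines were fixed and stained with the nucleic acid dye Syto60, suspension lines read with resazurin; signal relative to control wells, capped at 0 and 100%. One two-parameter sigmoid per drug and line, fitted in a mixed model over all curves with the slope shared within a line.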

Bortezomib = compound: CC(C)C[C@H](NC(=O)[C@H](Cc1ccccc1)NC(=O)c1cnccn1)B(O)O [Bortezomib]; conditions: top dose 0.02 µM
Experimental: as §1

Obatoclax mesylate = compound: COC1=CC(c2cc3ccccc3[nH]2)=N/C1=C\c1[nH]c(C)cc1C [Obatoclax mesylate]; conditions: top dose 16 µM
Experimental: as §1

CP724714 = compound: COCC(=O)NC/C=C/c1ccc2ncnc(Nc3ccc(Oc4ccc(C)nc4)c(C)c3)c2c1 [CP724714]; conditions: top dose 10.24 µM; top dose inferred
Experimental: as §1

STF-62247 = compound: Cc1cccc(Nc2nc(-c3ccncc3)cs2)c1 [STF-62247]; conditions: top dose 10.24 µM; top dose inferred
Experimental: as §1

CX-5461 = compound: Cc1cnc(CNC(=O)c2c(=O)c3ccc(N4CCCN(C)CC4)nc3n3c2sc2ccccc23)cn1 [CX-5461]; conditions: top dose 10.24 µM; top dose inferred
Experimental: as §1

| Cell Line | AUC (Paclitaxel) | IC50 (Paclitaxel) | AUC (Bortezomib) | IC50 (Bortezomib) | AUC (Obatoclax mesylate) | IC50 (Obatoclax mesylate) | AUC (CP724714) | IC50 (CP724714) | AUC (STF-62247) | IC50 (STF-62247) | AUC (CX-5461) | IC50 (CX-5461) |
| --- | --- | --- | --- | --- | --- | --- | --- | --- | --- | --- | --- | --- |
| CA46 (Burkitt lymphoma, suspension) | 0.906 | > 102 nM | 0.925 | > 20 nM | 0.176 | 95.8 nM | 0.964 | > 10200 nM | 0.975 | > 10200 nM | 0.55 | 886 nM |
| CAS-1 (glioma, adherent) | 0.862 | > 102 nM | 0.545 | 1.73 nM | 0.509 | 1070 nM | 0.949 | > 10200 nM | 0.976 | > 10200 nM | 0.982 | > 10200 nM |
| CESS (acute myeloid leukaemia, suspension) | 0.567 | 9.47 nM | 0.369 | 0.577 nM | 0.153 | 107 nM | 0.967 | > 10200 nM | 0.969 | > 10200 nM | 0.22 | 114 nM |
| CGTH-W-1 (thyroid, adherent) | 0.801 | 49.5 nM | 0.666 | 3.6 nM | 0.373 | 447 nM | 0.97 | > 10200 nM | 0.984 | > 10200 nM | 0.982 | > 10200 nM |
| CHP-126 (neuroblastoma, suspension) | 0.956 | > 102 nM | 0.737 | 6.09 nM | 0.528 | 1190 nM | 0.978 | > 10200 nM | 0.943 | > 10200 nM | 0.435 | 424 nM |
| CL-11 (large intestine, adherent) | 0.979 | > 102 nM | 0.705 | 5.12 nM | 0.804 | 9250 nM | 0.978 | > 10200 nM | 0.987 | > 10200 nM | 0.984 | > 10200 nM |
| CMK (acute myeloid leukaemia, suspension) | 0.762 | 31.5 nM | 0.503 | 1.27 nM | 0.094 | 62.8 nM | 0.981 | > 10200 nM | 0.91 | > 10200 nM | 0.386 | 327 nM |
| COLO-320-HSR (large intestine, suspension) | 0.938 | > 102 nM | 0.681 | 3.71 nM | 0.247 | 211 nM | 0.972 | > 10200 nM | 0.962 | > 10200 nM | 0.971 | > 10200 nM |
| COLO-684 (endometrium, suspension) | 0.729 | 31.5 nM | 0.669 | 3.93 nM | 0.342 | 343 nM | 0.966 | > 10200 nM | 0.984 | > 10200 nM | 0.794 | 5390 nM |
| COLO-800 (melanoma, adherent) | 0.985 | > 102 nM | 0.848 | 14.3 nM | 0.261 | 213 nM | 0.96 | > 10200 nM | 0.981 | > 10200 nM | 0.862 | 8320 nM |
| COLO-824 (breast, adherent) | 0.966 | > 102 nM | 0.981 | > 20 nM | 0.377 | 454 nM | 0.954 | > 10200 nM | 0.964 | > 10200 nM | 0.931 | > 10200 nM |
| COLO-829 (melanoma, adherent) | 0.957 | > 102 nM | 0.438 | 0.779 nM | 0.478 | 849 nM | 0.972 | > 10200 nM | 0.979 | > 10200 nM | 0.951 | > 10200 nM |
| COR-L88 (small cell lung carcinoma, adherent) | 0.795 | 57.9 nM | 0.664 | 3.92 nM | 0.801 | 9590 nM | 0.981 | > 10200 nM | 0.982 | > 10200 nM | 0.986 | > 10200 nM |
| COR-L95 (small cell lung carcinoma, adherent) | 0.901 | > 102 nM | 0.744 | 7.09 nM | 0.907 | > 16000 nM | 0.984 | > 10200 nM | 0.98 | > 10200 nM | 0.502 | 650 nM |
| COR-L279 (small cell lung carcinoma, suspension) | 0.6 | 11.7 nM | 0.785 |  | 0.425 | 639 nM | 0.98 | > 10200 nM | 0.971 | > 10200 nM | 0.879 | 8560 nM |
| CP66-MEL (melanoma, adherent) | 0.941 | > 102 nM | 0.397 | 0.624 nM | 0.478 | 865 nM | 0.978 | > 10200 nM | 0.973 | > 10200 nM | 0.985 | > 10200 nM |
| CPC-N (small cell lung carcinoma, suspension) | 0.717 | 28.1 nM | 0.616 | 2.68 nM | 0.599 | 1920 nM | 0.978 | > 10200 nM | 0.985 | > 10200 nM | 0.896 | > 10200 nM |
| CTB-1 (B-cell lymphoma, suspension) | 0.776 | 56.7 nM | 0.718 | 6.57 nM | 0.291 | 205 nM | 0.974 | > 10200 nM | 0.938 | > 10200 nM | 0.65 | 1940 nM |
